Assay results published in paper PMC8363609.
Results are given in words; binding and its absence hold for the method and conditions named. In cells and extracts the contact can be indirect. Some binding calls cover weakened binding; strength is not graded here. Where a sequence is shown, tags or fusion partners need not be part of it.

Protein sequences, listed by entry. Tags and fused reporters are not part of them.
UniProt O43303: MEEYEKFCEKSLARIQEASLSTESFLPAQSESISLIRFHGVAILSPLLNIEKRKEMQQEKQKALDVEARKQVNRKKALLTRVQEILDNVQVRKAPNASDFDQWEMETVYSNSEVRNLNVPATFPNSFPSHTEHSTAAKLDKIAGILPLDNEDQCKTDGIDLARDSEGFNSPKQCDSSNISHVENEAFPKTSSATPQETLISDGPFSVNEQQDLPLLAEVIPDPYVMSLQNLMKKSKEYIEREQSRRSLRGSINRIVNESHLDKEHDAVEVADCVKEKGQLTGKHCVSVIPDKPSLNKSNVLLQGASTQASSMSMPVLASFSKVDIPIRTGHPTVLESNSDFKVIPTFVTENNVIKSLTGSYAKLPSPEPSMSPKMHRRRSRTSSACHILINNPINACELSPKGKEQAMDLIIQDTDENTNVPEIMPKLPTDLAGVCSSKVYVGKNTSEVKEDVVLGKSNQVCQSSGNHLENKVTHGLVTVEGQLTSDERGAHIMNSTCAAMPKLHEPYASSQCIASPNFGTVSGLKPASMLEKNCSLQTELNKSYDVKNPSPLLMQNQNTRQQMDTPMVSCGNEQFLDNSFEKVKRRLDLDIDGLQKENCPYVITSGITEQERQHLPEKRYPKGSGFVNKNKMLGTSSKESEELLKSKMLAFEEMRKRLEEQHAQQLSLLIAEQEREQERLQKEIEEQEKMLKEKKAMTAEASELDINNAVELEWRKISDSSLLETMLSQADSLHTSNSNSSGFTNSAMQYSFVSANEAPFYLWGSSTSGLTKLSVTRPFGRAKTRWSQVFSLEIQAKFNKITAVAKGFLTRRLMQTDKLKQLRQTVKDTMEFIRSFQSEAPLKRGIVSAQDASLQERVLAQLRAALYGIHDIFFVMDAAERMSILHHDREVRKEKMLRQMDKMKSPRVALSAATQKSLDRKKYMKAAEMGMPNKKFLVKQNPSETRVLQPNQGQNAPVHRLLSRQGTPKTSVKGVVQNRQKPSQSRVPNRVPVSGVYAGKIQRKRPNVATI
UniProt P53350: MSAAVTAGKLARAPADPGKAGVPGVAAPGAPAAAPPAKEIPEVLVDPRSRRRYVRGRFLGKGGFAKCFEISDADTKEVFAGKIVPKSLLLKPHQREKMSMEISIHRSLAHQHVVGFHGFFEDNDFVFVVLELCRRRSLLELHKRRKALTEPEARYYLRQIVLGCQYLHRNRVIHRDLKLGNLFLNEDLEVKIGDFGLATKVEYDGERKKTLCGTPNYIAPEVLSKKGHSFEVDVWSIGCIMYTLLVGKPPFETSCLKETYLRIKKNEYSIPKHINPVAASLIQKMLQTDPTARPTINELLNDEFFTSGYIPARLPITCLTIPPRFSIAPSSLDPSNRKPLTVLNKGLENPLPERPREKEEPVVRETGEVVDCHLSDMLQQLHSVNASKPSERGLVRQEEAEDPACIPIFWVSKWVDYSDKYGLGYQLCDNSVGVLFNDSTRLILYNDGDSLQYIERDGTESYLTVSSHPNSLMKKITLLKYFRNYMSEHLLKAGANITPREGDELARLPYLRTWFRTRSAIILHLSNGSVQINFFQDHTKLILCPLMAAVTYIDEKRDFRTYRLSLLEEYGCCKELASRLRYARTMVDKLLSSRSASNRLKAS
UniProt Q9HC77: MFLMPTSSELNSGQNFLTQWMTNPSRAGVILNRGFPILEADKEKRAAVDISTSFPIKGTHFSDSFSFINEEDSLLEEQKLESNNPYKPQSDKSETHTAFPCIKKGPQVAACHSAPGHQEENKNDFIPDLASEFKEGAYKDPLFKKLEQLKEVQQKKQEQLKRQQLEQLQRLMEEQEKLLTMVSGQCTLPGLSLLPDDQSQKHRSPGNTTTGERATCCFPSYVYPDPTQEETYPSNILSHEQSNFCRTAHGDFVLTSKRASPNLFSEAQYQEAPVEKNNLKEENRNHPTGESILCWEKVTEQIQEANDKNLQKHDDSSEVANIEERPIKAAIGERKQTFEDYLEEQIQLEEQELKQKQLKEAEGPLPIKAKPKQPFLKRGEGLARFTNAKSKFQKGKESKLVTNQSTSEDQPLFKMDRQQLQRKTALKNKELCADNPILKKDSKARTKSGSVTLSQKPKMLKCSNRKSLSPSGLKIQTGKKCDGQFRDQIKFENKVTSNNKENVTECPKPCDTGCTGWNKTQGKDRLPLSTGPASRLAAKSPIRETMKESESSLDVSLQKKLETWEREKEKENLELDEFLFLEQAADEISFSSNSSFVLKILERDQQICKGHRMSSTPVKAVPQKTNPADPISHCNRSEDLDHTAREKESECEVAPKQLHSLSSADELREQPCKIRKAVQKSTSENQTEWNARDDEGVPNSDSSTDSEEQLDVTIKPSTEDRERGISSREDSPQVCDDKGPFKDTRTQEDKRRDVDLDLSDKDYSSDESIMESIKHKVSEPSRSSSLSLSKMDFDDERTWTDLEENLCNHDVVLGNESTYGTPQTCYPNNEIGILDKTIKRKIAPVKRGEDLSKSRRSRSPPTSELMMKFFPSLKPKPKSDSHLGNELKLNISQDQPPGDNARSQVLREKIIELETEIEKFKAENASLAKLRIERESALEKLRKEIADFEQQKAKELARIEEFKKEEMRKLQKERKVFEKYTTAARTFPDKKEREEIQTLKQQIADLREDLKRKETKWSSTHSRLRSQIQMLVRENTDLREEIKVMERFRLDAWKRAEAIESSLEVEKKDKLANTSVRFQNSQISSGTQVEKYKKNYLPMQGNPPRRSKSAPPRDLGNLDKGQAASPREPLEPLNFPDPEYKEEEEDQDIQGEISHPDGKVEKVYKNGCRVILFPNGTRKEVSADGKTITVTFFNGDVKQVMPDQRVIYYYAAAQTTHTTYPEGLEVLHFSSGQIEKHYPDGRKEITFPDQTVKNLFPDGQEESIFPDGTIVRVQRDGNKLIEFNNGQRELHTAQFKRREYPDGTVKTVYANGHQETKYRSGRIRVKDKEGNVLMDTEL
UniProt P41208: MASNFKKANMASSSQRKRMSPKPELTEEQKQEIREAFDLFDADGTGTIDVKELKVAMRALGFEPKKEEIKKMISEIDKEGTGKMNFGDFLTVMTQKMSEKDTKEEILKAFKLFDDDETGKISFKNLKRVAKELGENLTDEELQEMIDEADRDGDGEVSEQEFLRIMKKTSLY

How the values were obtained:
Assay in all cases: co-IP; HEK293T cells co-transfected with two tagged plasmids, collected after 24 h; lysed in ELB buffer (50 mM HEPES, 250 mM NaCl, 0.1% NP-40); IP with anti-GFP, anti-FLAG or anti-MYC antibody and Dynabeads-protein-G at 4 °C; immunoblot for the tags
GFP-NEK2A (human) = target: T1, GFP-NEK2A (human) (UniProt P51955)
T1 sequence: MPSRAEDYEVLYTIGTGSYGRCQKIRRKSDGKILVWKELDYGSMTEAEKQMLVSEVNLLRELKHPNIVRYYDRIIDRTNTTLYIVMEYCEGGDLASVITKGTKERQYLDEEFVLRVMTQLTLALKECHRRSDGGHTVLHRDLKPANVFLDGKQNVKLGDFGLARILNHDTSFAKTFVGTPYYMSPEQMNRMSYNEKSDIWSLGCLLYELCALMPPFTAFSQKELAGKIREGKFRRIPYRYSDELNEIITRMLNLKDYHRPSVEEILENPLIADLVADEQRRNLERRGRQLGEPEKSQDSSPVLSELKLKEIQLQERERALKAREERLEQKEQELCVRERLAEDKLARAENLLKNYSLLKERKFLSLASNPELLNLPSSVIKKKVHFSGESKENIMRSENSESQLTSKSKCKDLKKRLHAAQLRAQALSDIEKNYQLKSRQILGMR

GFP-CP110 (human) = GFP-CP110 (human) (UniProt O43303)
GFP-PLK1 (human) = GFP-PLK1 (human) (UniProt P53350)
GFP-CEP68 (human) = target: T2, GFP-CEP68 (human) (UniProt Q76N32)
T2 sequence: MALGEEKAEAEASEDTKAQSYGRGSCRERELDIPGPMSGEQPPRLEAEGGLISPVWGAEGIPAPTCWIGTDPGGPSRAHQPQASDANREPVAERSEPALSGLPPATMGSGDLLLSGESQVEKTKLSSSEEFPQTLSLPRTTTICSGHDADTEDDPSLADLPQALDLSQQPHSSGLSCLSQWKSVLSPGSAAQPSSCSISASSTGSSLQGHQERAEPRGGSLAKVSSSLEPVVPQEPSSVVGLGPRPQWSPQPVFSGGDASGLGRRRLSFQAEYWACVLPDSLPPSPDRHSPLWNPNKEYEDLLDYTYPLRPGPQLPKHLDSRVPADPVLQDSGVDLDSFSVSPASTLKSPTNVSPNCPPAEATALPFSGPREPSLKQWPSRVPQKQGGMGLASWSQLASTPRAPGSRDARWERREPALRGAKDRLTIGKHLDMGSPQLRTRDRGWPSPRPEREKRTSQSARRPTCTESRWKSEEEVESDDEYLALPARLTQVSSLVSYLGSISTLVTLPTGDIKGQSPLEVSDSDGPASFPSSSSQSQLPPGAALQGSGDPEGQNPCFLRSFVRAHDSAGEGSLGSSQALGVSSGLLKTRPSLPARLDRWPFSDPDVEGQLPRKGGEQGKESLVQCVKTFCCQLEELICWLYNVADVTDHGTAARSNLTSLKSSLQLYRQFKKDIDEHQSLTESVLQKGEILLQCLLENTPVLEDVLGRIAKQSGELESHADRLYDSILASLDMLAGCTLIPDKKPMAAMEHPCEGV

GFP-BBS4 (human) = target: T3, GFP-BBS4 (human) (UniProt Q96RK4)
T3 sequence: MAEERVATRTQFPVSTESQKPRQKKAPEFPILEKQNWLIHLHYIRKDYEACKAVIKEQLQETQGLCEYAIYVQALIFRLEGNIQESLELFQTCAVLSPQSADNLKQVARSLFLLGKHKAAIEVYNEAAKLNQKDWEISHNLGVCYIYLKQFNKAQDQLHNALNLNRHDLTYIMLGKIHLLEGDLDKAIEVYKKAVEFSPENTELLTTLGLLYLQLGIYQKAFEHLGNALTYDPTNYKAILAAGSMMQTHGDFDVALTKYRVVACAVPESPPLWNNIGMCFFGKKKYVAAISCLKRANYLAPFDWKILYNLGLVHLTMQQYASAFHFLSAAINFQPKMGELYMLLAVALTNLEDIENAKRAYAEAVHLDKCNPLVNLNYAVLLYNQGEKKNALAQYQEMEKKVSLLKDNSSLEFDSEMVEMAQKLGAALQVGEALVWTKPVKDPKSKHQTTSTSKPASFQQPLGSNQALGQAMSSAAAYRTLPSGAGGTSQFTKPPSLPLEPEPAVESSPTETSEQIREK

GFP-CPAP (human) = GFP-CPAP (human) (UniProt Q9HC77)
[1] = target: T4, MYC-CENTLEIN 971–1396aa (not stated (human or mouse cDNA cloned)) (UniProt A2AM05)
T4 sequence: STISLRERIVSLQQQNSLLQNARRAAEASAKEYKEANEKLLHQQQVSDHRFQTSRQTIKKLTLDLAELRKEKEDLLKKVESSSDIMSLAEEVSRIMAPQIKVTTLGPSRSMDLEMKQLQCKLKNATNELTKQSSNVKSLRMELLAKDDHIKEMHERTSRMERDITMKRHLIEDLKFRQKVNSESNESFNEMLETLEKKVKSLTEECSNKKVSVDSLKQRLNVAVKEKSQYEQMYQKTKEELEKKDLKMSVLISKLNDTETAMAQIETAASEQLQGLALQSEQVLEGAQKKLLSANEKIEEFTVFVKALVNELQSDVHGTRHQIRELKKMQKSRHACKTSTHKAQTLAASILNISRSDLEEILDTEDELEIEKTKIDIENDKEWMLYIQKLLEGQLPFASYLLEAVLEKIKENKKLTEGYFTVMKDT

GFP-CETN2 (human) = GFP-CETN2 (human) (UniProt P41208)

binding (GFP-NEK2A (human)): no binding
binding (GFP-CP110 (human)): no binding
binding (GFP-PLK1 (human)): no binding
binding (GFP-CEP68 (human)): no binding
binding (GFP-BBS4 (human)): no binding
binding (GFP-CPAP (human)): no binding
binding [1]: binds
binding (GFP-CETN2 (human)): no binding
B1: FLAG-tagged SUN5 (protein, UniProt Q9DA32 1-373)
chain: MPRTRNIGALCTLPEDTTHSGRPRRGVQRSYISRMAEPAPANMNDPLLLPLRMNTPGLSLVQILLGYMSWLTYLACFLRTQTQQVFLNTCRCKLFCQKVMEKMGLLVLCVFGFWMFSMHLPSKVEVWQDDSINGPLQSLRMYQEKVRHHTGEIQDLRGSMNQLIAKLQKMEAISDEQKMAQKIMKMIQGDYIEKPDFALKSIGASIDFEHTSATYNHDKARSYWNWIRLWNYAQPPDVILEPNVTPGNCWAFASDRGQVTIRLAQKVYLSNITLQHIPKTISLSGSPDTAPKDIVIYGLESLPREEVFLGAFQFQPENVIQMFQLQNLPPRSFAAVKVKISSNWGNPRFTCMYRVRVHGSVTPPKDSHLEPLS
